According to EPA's CvTdb concentration-time database:
Where “and” joins values, the source holds several entries; their conditions need not be identical. Equal entries are not always repeated. The source gives many values for each of these; only a part stands here.

Tests used:
Test in all cases: concentration in plasma after dosing
[1] = system: Rat; settings: 6 h; dosed: 2-Hydroxy-4-methoxybenzophenone; 500 mg/kg; oral; Female; F344
[2] = system: Rat; settings: 2 h; dosed: 2-Hydroxy-4-methoxybenzophenone; 250 mg/kg; oral; Male; F344
[3] = system: Rat; settings: 0.5 h; dosed: 2-Hydroxy-4-methoxybenzophenone; 8 mg/kg; iv; Male; F344
[4] = system: Mouse; settings: 6 h; dosed: 2-Hydroxy-4-methoxybenzophenone; 50 mg/kg; iv; Female; B6C3F1
[5] = system: Mouse; settings: 6 h; dosed: 2-Hydroxy-4-methoxybenzophenone; 500 mg/kg; oral; Male; B6C3F1
[6] = system: Rat; settings: dosed: 2-Hydroxy-4-methoxybenzophenone, F344
[7] = system: Mouse; settings: dosed: 2-Hydroxy-4-methoxybenzophenone, B6C3F1

O=C(c1ccccc1)c1ccc(O)cc1O [2,4-Dihydroxybenzophenone]
Settings | concentration in plasma [ng/mL]
[1] | 241
[2] | 118
[3] | 43
[4] | 30.5
[5] | 262

concentration in plasma
Settings | Female | Male
[6], 0.25 h, 8 mg/kg, iv | 101 ng/mL | 55.7 ng/mL
[6], 0.5 h, 8 mg/kg, iv | 49.6 ng/mL | 35.3 ng/mL
[6], 0.5 h, 250 mg/kg, oral | 658 ng/mL | –
[6], 1 h, 8 mg/kg, iv | – | 37.6 ng/mL
[6], 1 h, 100 mg/kg, oral | 130 ng/mL | 112 ng/mL
[6], 1 h, 250 mg/kg, oral | 441 ng/mL | 271 ng/mL
[6], 1 h, 500 mg/kg, oral | 838 ng/mL | 1430 ng/mL
[6], 1.5 h, 100 mg/kg, oral | 68 ng/mL | 76.7 ng/mL
[6], 1.5 h, 250 mg/kg, oral | 347 ng/mL | 157 ng/mL
[6], 2 h, 100 mg/kg, oral | 87.9 ng/mL | 59.8 ng/mL
[6], 2 h, 250 mg/kg, oral | 190 ng/mL | 179 ng/mL
[6], 2 h, 500 mg/kg, oral | 326 ng/mL | 385 ng/mL
[6], 3 h, 100 mg/kg, oral | – | 62.9 ng/mL
[6], 3 h, 250 mg/kg, oral | – | 81.1 ng/mL
[6], 4 h, 500 mg/kg, oral | 244 ng/mL | –
[6], 5 min, 8 mg/kg, iv | 96.6 ng/mL | 91 ng/mL
[6], 5 min, 500 mg/kg, oral | 81.7 ng/mL | –
[6], 6 h, 100 mg/kg, oral | 49.4 ng/mL | 50.8 ng/mL
[6], 6 h, 250 mg/kg, oral | 108 ng/mL | 67.4 ng/mL
[6], 6 h, 500 mg/kg, oral | 285 ng/mL | –
[6], 8 h, 100 mg/kg, oral | 79.9 ng/mL | 33.1 ng/mL
[6], 8 h, 250 mg/kg, oral | 68 ng/mL | 78 ng/mL
[6], 8 h, 500 mg/kg, oral | 234 ng/mL | 266 ng/mL
[6], 10 h, 250 mg/kg, oral | 103 ng/mL | –
[6], 10 h, 500 mg/kg, oral | – | 264 ng/mL
[6], 10 min, 8 mg/kg, iv | 131 ng/mL | 79.9 ng/mL
[6], 16 h, 500 mg/kg, oral | 118 ng/mL | 57.9 ng/mL
[7], 0.5 h, 50 mg/kg, iv | 278 ng/mL | 416 ng/mL
[7], 0.5 h, 100 mg/kg, oral | 162 ng/mL | 397 ng/mL
[7], 0.5 h, 250 mg/kg, oral | 477 ng/mL | 1840 ng/mL
[7], 0.5 h, 500 mg/kg, oral | 2390 ng/mL | 3720 ng/mL
[7], 0.75 h, 100 mg/kg, oral | 80.4 ng/mL | 220 ng/mL
[7], 1 h, 50 mg/kg, iv | 80.5 ng/mL | 308 ng/mL
[7], 1 h, 100 mg/kg, oral | 67.4 ng/mL | 266 ng/mL
[7], 1 h, 250 mg/kg, oral | 173 ng/mL | 377 ng/mL
[7], 1 h, 500 mg/kg, oral | 863 ng/mL | 1640 ng/mL
[7], 1.5 h, 50 mg/kg, iv | 83.6 ng/mL | 188 ng/mL
[7], 1.5 h, 100 mg/kg, oral | 70 ng/mL | 75.5 ng/mL
[7], 1.5 h, 250 mg/kg, oral | 99.1 ng/mL | 365 ng/mL
[7], 2.5 min, 250 mg/kg, oral | 102 ng/mL | –
[7], 2.5 min, 500 mg/kg, oral | 719 ng/mL | 187 ng/mL
[7], 4 h, 50 mg/kg, iv | 43.4 ng/mL | 148 ng/mL
[7], 4 h, 100 mg/kg, oral | 41.1 ng/mL | 142 ng/mL
[7], 4 h, 250 mg/kg, oral | 104 ng/mL | 141 ng/mL
[7], 4 h, 500 mg/kg, oral | 219 ng/mL | 429 ng/mL
[7], 5 h, 100 mg/kg, oral | 32.5 ng/mL | 182 ng/mL
[7], 5 h, 250 mg/kg, oral | 89.2 ng/mL | 162 ng/mL
[7], 5 min, 50 mg/kg, iv | 2940 ng/mL | 4310 ng/mL
[7], 5 min, 100 mg/kg, oral | 330 ng/mL | 68.7 ng/mL
[7], 5 min, 250 mg/kg, oral | 459 ng/mL | 387 ng/mL
[7], 5 min, 500 mg/kg, oral | 775 ng/mL | 763 ng/mL
[7], 6 h, 50 mg/kg, iv | 85.7 ng/mL | 131 ng/mL
[7], 6 h, 100 mg/kg, oral | – | 38.5 ng/mL
[7], 6 h, 250 mg/kg, oral | 226 ng/mL | 175 ng/mL
[7], 6 h, 500 mg/kg, oral | 192 ng/mL | 115 ng/mL
[7], 7 h, 250 mg/kg, oral | 69.9 ng/mL | 171 ng/mL
[7], 8 h, 50 mg/kg, iv | 42.8 ng/mL | 163 ng/mL
[7], 8 h, 500 mg/kg, oral | 93.5 ng/mL | 275 ng/mL
[7], 10 h, 500 mg/kg, oral | 33.6 ng/mL | 74.9 ng/mL
[7], 12 h, 50 mg/kg, iv | 43.5 ng/mL | 79.9 ng/mL
[7], 12 h, 500 mg/kg, oral | 43.6 ng/mL and 71.2 ng/mL | 239 ng/mL
[7], 16 h, 50 mg/kg, iv | 66.8 ng/mL | 116 ng/mL
[7], 16 h, 500 mg/kg, oral | 52.7 ng/mL | 42.3 ng/mL
